Assay results published in the supplement of paper PMC3334620.
Over roughly 33,000 sequences, “E-score (-0.5 to 0.5)” has its median near -0.036; the highest 2% begin near 0.37. The list shows a part of the results.

target: T1, Yer064c (UniProt P40041); experiment: PBM E-score (8-mer binding enrichment) (E-score (-0.5 to 0.5)); higher = stronger / more preferred TF binding; most listed sequences are background and not binding sites; details: protein concentration: 200 nM; construct: GST-full length
T1 sequence: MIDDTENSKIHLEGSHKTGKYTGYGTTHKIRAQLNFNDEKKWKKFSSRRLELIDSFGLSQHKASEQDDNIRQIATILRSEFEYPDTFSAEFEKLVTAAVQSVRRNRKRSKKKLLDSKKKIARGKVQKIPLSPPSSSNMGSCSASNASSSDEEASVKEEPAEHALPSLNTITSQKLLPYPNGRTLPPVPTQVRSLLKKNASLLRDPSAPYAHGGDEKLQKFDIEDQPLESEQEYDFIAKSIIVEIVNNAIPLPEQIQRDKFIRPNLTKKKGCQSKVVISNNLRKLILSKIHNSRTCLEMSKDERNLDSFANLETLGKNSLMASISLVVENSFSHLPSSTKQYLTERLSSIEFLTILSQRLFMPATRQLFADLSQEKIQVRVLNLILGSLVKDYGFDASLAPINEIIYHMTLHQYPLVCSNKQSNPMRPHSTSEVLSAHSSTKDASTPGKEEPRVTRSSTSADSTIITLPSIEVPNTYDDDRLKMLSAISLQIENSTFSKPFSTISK
Method in brief: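 Masliner-normalised scans of fluorescent anti-GST signal were the basis for scoring. That signal came from GST-tagged yeast transcription factors applied at about 100-200 nM to double-stranded universal all-10-mer Agilent arrays on fresh or once-stripped slides. Each ungapped eight-base word, pooled with its reverse complement, received an E-score from the Universal PBM Analysis Suite.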

Sequence	PBM E-score
AGACGTTC	-0.092
CCAAACCG	-0.0301
GTCAAGAC	0.19
ACCTAAAG	-0.0663
GACCGCAC	-0.161
CTTATCGC	0.0289
TGGCACCA	-0.469
ACGGTTCC	-0.0675
ATTGTGGG	0.108
GCAGTCCA	0.123
AGCGCGAT	0.047
CCAATTCG	-0.0585
AAGGTCTG	-0.0928
ATTTCGCA	-0.03
AGTAAGCC	-0.179
CGTAAGTA	0.046
AGATAAGC	-0.11
CTCACATC	0.0966
CCCAAAGG	-0.165
AGGGAGAA	-0.0717
CAACCAAA	0.0356
ACAAGTAG	0.00472
AACTCTAC	-0.212
CCACTACA	-0.0682
CCTCTTAA	-0.0462

Sequence	PBM E-score
CATTGCTA	-0.125
AAATGCGC	-0.152
GTGCAATA	-0.165
AACCGTTA	0.0513
GATAATGA	0.158
GACCCATA	0.145
AAGAAAGT	0.0227
AGGTGTCC	-0.0242
CATCGTAA	0.0458
ACTCTATA	0.239
ACTCACGC	0.357
GGTCATCA	0.228
CGCCGTTC	-0.0382
CCTGAGAC	0.103
ACGATCGG	-0.0226
CATATATA	0.187
GAGCTACA	-0.0672
AGGGACCC	-0.274
AGTAAAGC	0.106
TCCTTTCA	-0.0272
AACAGGAC	0.0509
AACCGCCG	-0.0111
AGACAATG	-0.128
ACCGTGGC	-0.062
AATCAAAG	0.224

Sequence	PBM E-score
ATGATGAC	0.352
CAGGGCTA	-0.2
CTCAGCAA	0.129
AACACATG	0.0954
AATTAAAG	-0.0137
AGTCTATA	0.214
GACGGCGA	0.138
ACATTCCG	-0.191
AACGAAGT	-0.0275
AAGCGAAA	-0.213
CGCGCGAA	-0.0177
AGAACGCG	-0.101
CCAGGAAA	0.0481
ACCATCTG	-0.058
CCTTCCTA	-0.284
CCACTGTC	-0.218
AGTTAAAG	0.0913
GCACACTA	-0.128
TGCTAGCA	-0.178
CGCTTCTA	-0.00649
CCGCCTTC	-0.229
GCGTTTAA	0.0655
AAGTGCGA	0.027
CCCGAAGG	-0.102
AACTGGAA	-0.111

Sequence	PBM E-score
CGCCTTCA	-0.29
CCGCTTGC	-0.187
CATCAATC	0.216
AGTGTGTG	0.0709
GAGGAACC	-0.249
ACGCACCT	-0.264
ATACAGCC	-0.0904
CACCCCGC	-0.133
AATATGGA	-0.0374
CATGGTTC	0.263
ATTGAGGC	-0.156
ATGGACCG	-0.206
CCATACCA	-0.044
CTTGTGAC	0.222
CAGGTTCC	-0.185
AGCTCAGA	0.0441
ACTTGGCC	-0.134
GGTCTTAC	0.131
GCGGTGTA	-0.121
CTAGAAAG	0.0546
AGATACCT	-0.183
CGACTTTA	0.167
TGAATGAA	0.0427
GGGCAATA	-0.195
ATATCAGC	-0.216

Sequence	PBM E-score
AACGTGTA	0.00661
AAAGACGG	-0.116
GAACAACA	0.0466
AGAAGACG	-0.0622
CGGGCAGA	-0.0675
CACTCAAA	0.107
CTTTCTAC	-0.146
CAGTGCGG	-0.169
TCATTACA	0.208
CTAAACTC	-0.0742
AGATTACT	0.2
ATTACATA	0.177
ACTGCCTA	0.0997
AAAAGTAA	0.112
CCACCTCG	-0.0976
AGGTGAAT	0.0826
ACATCCAG	-0.127
CCGAAAGG	-0.127
CACGACGG	-0.126
CGATAGCC	-0.0746
CCTGTTCG	-0.17
TGTATGAA	-0.0394
AACTTCAT	-0.102
GGGATTCA	0.147
CTCGTATA	0.0865

Sequence	PBM E-score
CCAATGCA	-0.111
AGAGAAAC	-0.147
CTGGGGCA	-0.27
TAACGTCA	0.169
AGAACCCC	-0.27
AACCGGCC	-0.137
GTGACTGA	0.447
GCGAGAAA	-0.0263
GTAAACGA	0.0779
AAGGCGCA	-0.171
CAATGAGG	-0.258
AGTGCTAT	-0.068
CAATAGGC	-0.0939
CTGTATGC	-0.14
GGGGGGAA	-0.136
GAAAGATC	-0.269
GAGGGGCA	-0.423
GGAAGGTA	-0.105
GAGTAACC	0.126
CTAAGCGA	0.0665
CCAGTAAG	-0.0204
GCTCCTAC	-0.155
GCGCAGCA	0.0607
ACGTCCCA	-0.206
AGCTAGGC	-0.213

Sequence	PBM E-score
CATGTCGC	-0.0755
GGTACGGA	0.165
ACTGCGAA	-0.0747
AGGGTAGA	-0.0702
CGCCAACG	-0.211
ACAAGATA	0.0511
AGCCCCCG	-0.297
GGACGGAA	-0.108
GGTTGCCA	-0.186
GCAGCGAC	-0.00713
ACTGGCGC	-0.223
CCCTTCTA	-0.14
CGCGGACG	-0.105
AGCCGCCT	-0.127
GGCACAGA	-0.218
ACTCTGAT	0.215
GCTATCCC	-0.393
ACGCTTTG	-0.223
AGCGTAAG	-0.188
CAGCCTAG	-0.116
AAGCAAAT	0.0533
ATCACGAG	0.167
